Reference: patent publication US20180118841A1 (published 2018)

How the values were obtained:
[1] = biological target: T1, CTLA-4 (BMS, Orencia) (human); test: cell-based or functional assay
T1 chain: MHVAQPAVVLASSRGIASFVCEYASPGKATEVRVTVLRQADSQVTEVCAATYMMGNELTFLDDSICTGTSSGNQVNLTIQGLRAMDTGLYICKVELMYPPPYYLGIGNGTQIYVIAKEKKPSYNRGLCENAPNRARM

[2] = biological target: T1, CTLA-4 (BMS, Orencia); test: cell-based or functional assay

B1: bispecific molecule 1170/1141 (as printed in Tables 10.1 and 10.2) (bispecific antibody)
heavy: EVQLLESGGGLVQPGGSLRLSCAASGFTFGGYYMSWVRQAPGKGLEWVSYIPGSGGSTYYADSVKGRFTISRDNSKNTLYLQMNSLRAEDTAVYYCARYDYYWMDYWGQGTLVTVSS[… human IgG1 constant region …]
light: not shown
Mean IL-2 level (pg/ml) induced at 1.5 nM [1]: 2580 pg/mL
Fold change in IL-2 level induced by bispecific molecule compared to the corresponding combination of the monospecific molecules at 1.5 nM [2]: 4.7 fold
